According to PubChem BioAssay (NCI):
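Five compound concentrations were applied to cells in 96-well plates for 48 hours; endpoints were derived by simple linear interpolation of the resulting dose-response curve. GI50 is the concentration that inhibits growth by half.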 Not every entry of the source has a single result; some have several. The other results are left out here. There may be further records. For some of these results: The tests behind the records often covered other concentration ranges, not given here; some values may only mark the edge of a range. For some of these results: Values given together are repeated measurements across runs, samples, wells, individuals or studies. A tag in brackets gives the origin of a value. Letters hold for one entry only.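 At the TGI there is no net growth.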

Legend:
Experiment in all cases: NCI-60 cell line screen, 48 h
MALME-3M melanoma = system: MALME-3M melanoma
OVCAR-3 ovarian = system: OVCAR-3 ovarian
A498 renal = system: A498 renal
IGROV1 ovarian = system: IGROV1 ovarian
SK-MEL-28 melanoma = system: SK-MEL-28 melanoma
T-47D breast = system: T-47D breast
UACC-257 melanoma = system: UACC-257 melanoma
COLO 205 colon = system: COLO 205 colon
NCI-H226 lung = system: NCI-H226 lung
HOP-92 NSCLC = system: HOP-92 NSCLC
EKVX NSCLC = system: EKVX NSCLC
SK-OV-3 ovarian = system: SK-OV-3 ovarian
UACC-62 melanoma = system: UACC-62 melanoma
NCI-H522 lung = system: NCI-H522 lung
HS 578T breast = system: HS 578T breast
OVCAR-8 ovarian = system: OVCAR-8 ovarian
CAKI-1 renal = system: CAKI-1 renal
RPMI-8226 leukemia = system: RPMI-8226 leukemia
HOP-62 NSCLC = system: HOP-62 NSCLC
SF-295 CNS = system: SF-295 CNS
SNB-75 CNS = system: SNB-75 CNS
U251 CNS = system: U251 CNS

For COc1cc(Nc2nc3ccccc3nc2NS(=O)(=O)c2ccc(NC(=O)c3ccc(C)c(OC)c3)cc2)cc(OC)c1, the TGI (MALME-3M melanoma) was 43.3 µM [sample A, 1 test] and 66 µM [sample B, 1 test] and 2.48 µM [sample C, mean of 2 tests], the TGI (OVCAR-3 ovarian) was > 100 µM [sample A, 1 test] and > 100 µM [sample B, 1 test] and 8.37 µM [sample C, mean of 2 tests] and the GI50 (A498 renal) was 3.46 µM [sample A, 1 test] and 7.23 µM [sample B, 1 test] and 255 nM [sample C, mean of 2 tests]. The TGI (A498 renal) was 33.5 µM [sample A, 1 test] and 37.2 µM [sample B, 1 test] and 1.19 µM [sample C, mean of 2 tests], the GI50 (IGROV1 ovarian) was 1.8 µM [sample A, 1 test] and 9.55 µM [sample B, 1 test] and 323 nM [sample C, mean of 2 tests] and the TGI (IGROV1 ovarian) was 11.2 µM [sample A, 1 test] and 52.3 µM [sample B, 1 test] and 1.86 µM [sample C, mean of 2 tests]. The TGI (SK-MEL-28 melanoma) was > 100 µM [sample A, 1 test] and > 100 µM [sample B, 1 test] and 3.31 µM [sample C, mean of 2 tests], the GI50 (T-47D breast) was 2.89 µM [sample A, 1 test] and 13.6 µM [sample B, 1 test] and 424 nM [sample C, mean of 2 tests] and the TGI (T-47D breast) was > 100 µM [sample A, 1 test] and > 100 µM [sample B, 1 test] and 1.9 µM [sample C, mean of 2 tests]. For the same compound, the TGI (UACC-257 melanoma) was > 100 µM [sample A, 1 test] and 74.3 µM [sample B, 1 test] and 5.47 µM [sample C, mean of 2 tests], the TGI (COLO 205 colon) was > 100 µM [sample A, 1 test] and 33.3 µM [sample B, 1 test] and 5.79 µM [sample C, mean of 2 tests] and the TGI (NCI-H226 lung) was 93 µM [sample A, 1 test] and > 100 µM [sample B, 1 test] and 7.32 µM [sample C, mean of 2 tests]. The GI50 (HOP-92 NSCLC) was 3.4 µM [sample A, 1 test] and 1.3 µM [sample B, 1 test] and 174 nM [sample C, mean of 2 tests], the TGI (HOP-92 NSCLC) was 23 µM [sample A, 1 test] and 9.59 µM [sample B, 1 test] and 1.85 µM [sample C, mean of 2 tests] and the TGI (EKVX NSCLC) was > 100 µM [sample A, 1 test] and 7.89 µM [sample B, mean of 2 tests]. The TGI (SK-OV-3 ovarian) was 95.5 µM [sample A, 1 test] and 4.78 µM [sample B, mean of 2 tests], the GI50 (UACC-62 melanoma) was 3.37 µM [sample A, 1 test] and 12 µM [sample B, 1 test] and 306 nM [sample C, mean of 2 tests] and the TGI (UACC-62 melanoma) was 28.1 µM [sample A, 1 test] and 32.1 µM [sample B, 1 test] and 2.29 µM [sample C, mean of 2 tests]. The TGI (NCI-H522 lung) was 75 µM [sample A, 1 test] and 62.8 µM [sample B, 1 test] and 5.3 µM [sample C, mean of 2 tests] and the TGI (HS 578T breast) was 49.1 µM [sample A, 1 test] and 88.6 µM [sample B, 1 test] and 4.78 µM [sample C, mean of 2 tests].
With C[C@]12CC[C@H](OC3OC(CO)C(O)C(O)C3O)C[C@H]1CC[C@@H]1[C@@H]2CC[C@]2(C)[C@@H](C3=CCOC3=O)CC[C@]12O (stereo partly specified) the GI50 (OVCAR-8 ovarian) was > 100 µM [1 test] and 2.65 µM [mean of 4 tests], the TGI (OVCAR-8 ovarian) was > 100 µM [1 test] and 5 µM [mean of 4 tests] and the GI50 (CAKI-1 renal) was > 100 µM, 5.24 µM [1 test] and 45.2 nM [mean of 3 tests]. For the same compound, the TGI (CAKI-1 renal) was > 100 µM [1 test] and 871 nM [mean of 3 tests], the GI50 (RPMI-8226 leukemia) was > 100 µM [1 test] and 8.48 µM [mean of 3 tests] and the GI50 (HOP-62 NSCLC) was > 100 µM and 3.06 µM. The GI50 (NCI-H226 lung) was > 100 µM, 50.6 µM [1 test] and 3.74 µM [mean of 3 tests], the GI50 (SF-295 CNS) was > 100 µM and 4.1 µM and the GI50 (SNB-75 CNS) was > 100 µM and 3.54 µM. The GI50 (UACC-62 melanoma) was > 100 µM and 1.08 µM and the GI50 (U251 CNS) was > 100 µM and 3.84 µM.
